# The campaign covered roughly 370,000 compounds. About 150 (0.041%) were called active. The shares of active, inactive and inconclusive entries below differ from those in the screen. The call rests on the fitted dose curve; in most records, active means well fitted inhibition curve with a large enough effect; inconclusive means small, poorly fitted or top-dose-only effect; inactive means flat fitted curve, though single readings scatter. Potencies of inconclusive entries are left out as doubtful fits.
# Molecular target: Beta-lactamase (Escherichia coli (strain K12)) (UniProt P00811)
# Assay: qHTS Inhibitors of AmpC Beta-Lactamase (assay with detergent); further: nearly all actives have a fitted effect of over 25% in size;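 on activity change, negative = inhibition: 0% = no-compound wells and -100% = no-enzyme wells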
# Conditions: AmpC hydrolysis of nitrocefin, absorbance 480 nm, 0.01% Triton; activity change, negative = inhibition: at 114 µM (top of the series)
# Procedure, shortened: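 AmpC (5.3 nM in the dispensed reagent) in 20 mM phosphate pH 7.0 with 0.01% (detergent screen) or 0.0001% Triton X-100 was preincubated with compounds for 15 min at room temperature. Nitrocefin was then added from an 800 uM solution, and hydrolysis was followed at 480 nm.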
# Potency means the concentration at half of the fitted maximal effect; tags describe the fitted curve by direction and shape.
# Sequence of UniProt P00811 (P00811 whole entry, looked up): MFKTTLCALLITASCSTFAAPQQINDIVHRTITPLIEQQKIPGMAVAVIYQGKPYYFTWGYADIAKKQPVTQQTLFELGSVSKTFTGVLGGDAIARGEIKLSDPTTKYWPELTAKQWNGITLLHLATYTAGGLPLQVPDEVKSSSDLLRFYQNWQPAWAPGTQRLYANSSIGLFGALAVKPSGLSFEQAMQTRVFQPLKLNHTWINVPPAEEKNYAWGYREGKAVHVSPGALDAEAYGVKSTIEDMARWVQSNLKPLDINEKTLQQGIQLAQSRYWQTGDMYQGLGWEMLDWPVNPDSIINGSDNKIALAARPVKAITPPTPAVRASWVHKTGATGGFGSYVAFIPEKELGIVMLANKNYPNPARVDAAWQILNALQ
SMILES,"activity change, negative = inhibition",Potency
COc1ccccc1Oc1ccc(NC(=O)c2ccccc2C)cc1,inactive: 7.18%,
Cc1cc(NC(=O)Cn2cnc3c2c(=O)n(C)c(=O)n3C)n(-c2ccccc2)n1,,"inconclusive [inhibitor, full curve, poor fit]"
c1ccc(CN2CCN(c3nc(-c4ccccn4)nc4ccccc34)CC2)cc1,,"inconclusive [inhibitor, full curve, poor fit]"
CCC1(C)Cc2ccccc2-c2c1c(=O)n(Cc1ccccc1)c1nnnn21 (configuration not stated),,"inconclusive [inhibitor, full curve, poor fit]"
CCc1nnc(NC(=O)CSc2nccn2-c2cc(C)cc(C)c2)s1,,"inconclusive [inhibitor, full curve, poor fit]"
COc1ccccc1C(CC(=O)Nc1nccs1)c1ccco1 (configuration not stated),,"inconclusive [inhibitor, partial curve, poor fit]"
NC(=O)/C(=C\c1ccccc1)NC(=O)/C=C/c1ccccc1,,"inconclusive [inhibitor, full curve, poor fit]"
CCN(CC)S(=O)(=O)c1ccc(C)c(NC(=S)NC2CCCCC2)c1,,"inconclusive [inhibitor, single point]"
CCOC(=O)C(NC(=O)c1ccc(OC)cc1)(N1CCCC1=O)C(F)(F)F (configuration not stated),,"inconclusive [inhibitor, full curve, poor fit]"
CC(C)(C)N=Cc1cc(-c2ccccc2)sc1O,inactive: -2.08%,
Cc1ccc(N2C(=O)N3[C@H]4c5ccccc5OC[C@@H]4[C@@H](c4ccccc4)[C@@]3(C)C2=O)cc1,,"inconclusive [inhibitor, full curve, poor fit]"
COc1ccc(N2CCN(C(=O)c3c(C)nn(-c4ccccc4)c3C)CC2)cc1,,"inconclusive [inhibitor, single point]"
COCCCNC(=O)Cn1cc(C(=O)C2CC2)c2ccccc21,,"inconclusive [inhibitor, partial curve]"
Cc1oc(C(C)(C)C)cc1C(=O)Nc1cccc(/C=C\C(=O)O)c1,,"inconclusive [inhibitor, full curve]"
O=C(COC(=O)CC1Sc2ccccc2NC1=O)NCc1ccccc1 (configuration not stated),inactive: 1.56%,
O=C(Nc1cccc2c1CCCC2)C1CCCN(S(=O)(=O)c2cccc3nonc23)C1 (configuration not stated),,"inconclusive [inhibitor, full curve]"
CCOC(=O)C1CCN(C(=O)CCc2ccc(S(=O)(=O)NC(C)C)cc2)CC1,,"inconclusive [inhibitor, full curve, poor fit]"
Clc1cnc(Nc2cccnc2)c(Cl)c1,,"inconclusive [inhibitor, partial curve, poor fit]"
CCC/C(=N\NC(=O)C1CCCC1)c1ccccc1,,"inconclusive [inhibitor, full curve, poor fit]"
Cc1ccc(C)c(NC(=O)CSc2nnc(CNC(=O)c3ccco3)o2)c1,,"inconclusive [inhibitor, partial curve, poor fit]"
Cc1cc(Nc2ncc(Cl)cc2Cl)n[nH]1,,"inconclusive [inhibitor, full curve, poor fit]"

SMILES,"activity change, negative = inhibition",Potency
Cc1ccc(/C=C2/SC(=S)N(CC(=O)Nc3ncc(Cc4ccc(C)cc4)s3)C2=O)cc1,,"inconclusive [inhibitor, full curve, poor fit]"
CCN(CC)C(=O)C1CCCN(c2ncnc3c2cnn3-c2ccc(Cl)cc2)C1 (configuration not stated),,"inconclusive [inhibitor, full curve, poor fit]"
CCC(=O)Nc1ccc(C(=O)OCC(=O)c2ccc(C)c([N+](=O)[O-])c2)cc1,,"inconclusive [inhibitor, full curve, poor fit]"
CCC(=O)Nc1cc(ON=C(C)C)cc([N+](=O)[O-])c1,,"inconclusive [inhibitor, partial curve]"
Cc1cc(OCC(=O)NC(Cc2ccc(Cl)cc2)C(=O)O)c2c(C)cc(=O)oc2c1 (configuration not stated),,"inconclusive [inhibitor, full curve]"
O=C(CCc1ccccc1)NCCSCc1c(F)cccc1Cl,,"inconclusive [inhibitor, single point]"
Cc1ccc(CC(=O)NCc2ccc(F)cc2)cc1,,"inconclusive [inhibitor, single point]"
COc1ccc(N2CCN(C3CCCN(C(=O)C4=C(C)OCCO4)C3)CC2)cc1 (configuration not stated),,"inconclusive [inhibitor, full curve, poor fit]"
CCOC(=O)c1c(NC(NC(C)=O)C(Cl)(Cl)Cl)sc(C(C)=O)c1C (configuration not stated),,"inconclusive [inhibitor, full curve, poor fit]"
Cc1ccc(N2CC(C(=O)N3CCC(C(=O)Nc4ccc(Br)cc4)CC3)CC2=O)cc1 (configuration not stated),,"inconclusive [inhibitor, full curve]"
CCC1(C)Cc2c(sc3nc(SC)nc(N)c23)CO1 (configuration not stated),,"inconclusive [inhibitor, full curve, poor fit]"
Cc1ccc(-c2noc(C3CCN(S(C)(=O)=O)CC3)n2)o1,inactive: -15.7%,
Cc1cccc(N(C)C(=O)c2cc(S(=O)(=O)N3CCc4ccccc43)cn2C)c1,,"inconclusive [inhibitor, full curve, poor fit]"
c1ccc2c(c1)cnc1ccccc12,,"inconclusive [inhibitor, partial curve]"
COc1ccc(NC(=O)c2ccc(COCC(F)(F)F)cc2)cc1OC,,"inconclusive [inhibitor, full curve, poor fit]"
CCc1noc(C)c1C(=O)Nc1cccc(S(=O)(=O)N(C)c2ccccc2)c1,,"inconclusive [inhibitor, partial curve, poor fit]"
CC(C)CC(CC(C)C)=NNC(=O)c1ccc2c(c1)OCO2,inactive: -4.72%,
Cc1ccc(CN2CCN(Cc3ccc4cccc(F)c4n3)CC2CCO)cc1 (configuration not stated),,"inconclusive [inhibitor, full curve, poor fit]"
COc1ccc2nc(NC(=O)CSCc3c(C)noc3C)sc2c1,,"inconclusive [inhibitor, full curve]"
Cc1ccc(/C=N/Nc2ccc(Cl)nn2)cc1,,"inconclusive [inhibitor, full curve]"
CCOc1ccc(Nc2cc(C)nc3nc(C)nn23)cc1,,"inconclusive [inhibitor, partial curve, poor fit]"

SMILES,"activity change, negative = inhibition",Potency
COc1ccc(N(C)C(=O)CCS(=O)(=O)c2cccc3nsnc23)cc1,,"inconclusive [inhibitor, partial curve]"
O=C(Nc1sc2c(c1C(=O)NCCCO)CCCC2)c1ccccc1,,"inconclusive [inhibitor, single point]"
CC1Cc2ccccc2N1CC(=O)Nc1ccc(Cl)c(S(=O)(=O)N(C)C)c1 (configuration not stated),,"inconclusive [inhibitor, partial curve]"
O=C1c2ccccc2C(=O)c2c1ncn2-c1ccccc1,,"inconclusive [inhibitor, single point]"
O=C(Cc1ccccc1)Nc1c(C(=O)Nc2ccccc2F)oc2ccccc12,inactive: 10.7%,
CN(CC(=O)Nc1ccccc1Br)C(=O)CNC(=O)c1cccs1,,"inconclusive [inhibitor, full curve]"
O=C(Cn1cc2c(n1)CCCCC2)Nc1c(F)c(F)cc(F)c1F,,"inconclusive [inhibitor, full curve]"
ClC(Cl)(c1nnnn1-c1ccccc1)c1nnnn1-c1ccccc1,,"inconclusive [inhibitor, partial curve, poor fit]"
CCOc1ccc(-c2cc(CCCC(=O)N3CCN(c4ccc(OC)cc4)CC3)no2)cc1,,"inconclusive [inhibitor, full curve, poor fit]"
COc1ccc(Br)cc1CNC(=O)C1CCCCN1S(=O)(=O)c1ccc(F)cc1 (configuration not stated),,"inconclusive [inhibitor, single point]"
COc1cccc(OCC(=O)N(Cc2nc(-c3ccc(Cl)cc3)no2)C(C)C)c1,,"inconclusive [inhibitor, partial curve]"
CC(C)CN(C(=O)COC(=O)COc1ccc2c(c1)CCC2)c1c(N)n(Cc2ccccc2)c(=O)[nH]c1=O,,"inconclusive [inhibitor, full curve]"
Fc1ccccc1-c1nc(-c2ccccc2)no1,inactive: -5.81%,
COC(=O)c1ccccc1OCC(=O)NC1CCCCC1,inactive: -3.42%,
CSc1ccc(CCNC(=O)c2ccc(-n3c(C)cc4c3CCCC4)cc2)cc1,inactive: 13.4%,
CC(C)(O)c1[nH]c2ccc(C#N)cc2c1C(C)(C)O,,"inconclusive [inhibitor, full curve, poor fit]"
COc1ccc2oc(=O)c(C(=O)N3CCN(c4ccc(F)cc4)CC3)cc2c1,,"inconclusive [inhibitor, full curve, poor fit]"
O=C(c1ccccc1Cl)N(Cc1ccccc1F)N1C(=O)CCCC1=O,,"inconclusive [inhibitor, full curve]"
CC1=C(C(=O)OCc2ccccc2)C(c2ccc(C(F)(F)F)cc2)NC(=O)N1CCCCCC(=O)O (configuration not stated),,"inconclusive [inhibitor, partial curve, poor fit]"
CC(C)=CCOc1ccc2c(C)c(CC(=O)N3C[C@H]4C[C@@H](C3)c3cccc(=O)n3C4)c(=O)oc2c1C,,"inconclusive [inhibitor, partial curve, poor fit]"
